Test results from PMC12040169 (PLOS Biology, 2025).
The list shows a part of the results.

These compounds were tested on T1, C. trachomatis L2/434/Bu expressing GFP (CTL2-GFP). Settings: total inclusion area; 28.5 h, 10 µM; inhibitor.
T1 construct: L2/434/Bu GFP intracellular growth in HeLa cells
Set-up: species or system HeLa; C. trachomatis total inclusion area by high-content imaging, normalised to DMSO
Outline: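 High-content images of fixed, Hoechst-stained infected cultures supply inclusion area and count (growth) plus nuclei number (viability), complementing bulk GFP/resorufin fluorescence. MIC determination is unchanged from the primary assay.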

Row | Compound | % of control remaining
1 | O=C(Nc1ccc(OCc2ccoc2)cc1C(=O)O)c1ccc(Cl)cc1Cl [CBK003768D] | 78.1327
2 | CCn1cc(-c2cncn2CCCC(C)(C)CO)cn1 [CBK281704] | 88.3066
3 | O=C(Cn1c2ccccc2c2ccccc21)N1CCn2cnnc2C1 [CBK283724] | 98.4455
4 | COc1ccc(CNCCN)cc1 [CBK013010] | 49.5701
5 | CN1CCN(c2cc(N3CCN(S(=O)(=O)c4ccc5ccccc5c4)CC3)ccc2[N+](=O)[O-])CC1 [CBK264791] | 96.699
6 | O=S(=O)(NN1CCOCC1)c1cc(Cl)cc(Cl)c1O [CBK269279] | 112.494
7 | O=C(CCn1ncc2ccccc21)N1CCC(c2ccncc2)CC1 [CBK282395] | 78.8
8 | O=C(NCc1ccc(OC2CCNCC2)cc1)c1coc2c1C(=O)CCC2 [CBK038944T] | 98.4243
9 | Cc1nn(Cc2cccc(Oc3ccccc3)c2)c(C)c1NC(=O)c1nc2ncccn2n1 [CBK267632] | 85.4926
10 | Clc1ccc(COc2nccnc2OC2CCN(CCOc3ccccc3)CC2)cc1Cl [CBK083121T] | 81.9816
11 | Nc1nnc(Cn2c(-c3nonc3N)nc3ccccc32)s1 [CBK263854] | 48.3394
12 | Cc1noc(C)c1NC(=O)c1ccc2ncccc2c1 [CBK200308] | 104.233
13 | C=CCC1(CC=C)CCN1C(=O)c1cc2c([nH]c1=O)CCCCC2 [CBK282524] | 126.791
14 | O=c1[nH]c(=O)c2cc(S(=O)(=O)Nc3cccc(-c4ccc(F)cc4)c3)ccc2[nH]1 [CBK286394] | 115.619
15 | CCCc1[nH]nc(O)c1CCc1ccc(OC)cc1 [CBK081128] | 108.709
16 | CC(=O)Nc1ccc(C(=O)NC(c2cccs2)C2CCCC2)cc1 (stereo not drawn) [CBK297777] | 101.474
17 | Cc1c(C(=O)C2=C(O)C(=O)N(Cc3cccnc3)C2c2cccnc2)cnn1-c1ccccc1 (stereo not drawn) [CBK266543] | 115.892
18 | COc1cccn(CC(=O)N2CCc3sc(C(=O)N(C)C)cc3C2)c1=O [CBK307665] | 89.1924
19 | COc1ccc(OCC(=O)Nc2nonc2-c2ccccc2)cc1 [CBK287798] | 104.208
20 | Cc1ccc2nc(-c3ccc(N4C(=O)CC(N5CCC(N6CCCCC6)CC5)C4=O)cc3)sc2c1 (stereo not drawn) [CBK265315] | 94.4817
21 | COc1cc(/C=N/NC(=O)Cc2nnc(N)s2)cc(OC)c1OC [CBK262027] | 95.8326

Row | Compound | % of control remaining
22 | CCn1ncc2c1CCCC2NC1CCN(c2ccc(C#N)cc2)C1=O (stereo not drawn) [CBK305200] | 69.8709
23 | O=C(OCC#CCSc1nnc(-c2ccncc2)o1)c1sc2ccccc2c1Cl [CBK265677] | 101.549
24 | O=C1c2ccccc2C2(c3ccccc3)NCCN12 (stereo not drawn) [CBK067098] | 102.829
25 | Cc1ccc(S(=O)(=O)N(CC(=O)NCC2CCCO2)c2ccccc2)cc1 (stereo not drawn) [CBK264140] | 111.295
26 | COc1ccc(Oc2c(-c3ccc(O)cc3O)n[nH]c2C)cc1 [CBK288239] | 85.4035
27 | O=C(CC1CCN(CCc2ccccc2)CC1)Nc1cccc(-n2cccn2)c1 [CBK285951] | 0.729
28 | COc1cccc(/C=N/c2cc(S(=O)(=O)c3ccc(O)c(/N=C/c4cccc(OC)c4O)c3)ccc2O)c1O [CBK261225] | 89.9616
29 | COc1ccccc1Nc1nc(C)cc(C)c1C(N)=O [CBK287960] | 124.597
30 | CCCn1ncc(C(=O)NC(C)c2c(C)nn(CC)c2C)c1C (stereo not drawn) [CBK281532] | 104.982
31 | Cn1ncc2ccc(-c3nnn[nH]3)cc21 [CBK304776] | 29.8956
32 | COc1ncc(-c2cn3ccnc3c(N3CCN(CCO)CC3)n2)c(OC)n1 [CBK037869] | 58.8292
33 | COC(=O)c1ccc(N2CCN(C(C)c3nnc(C)o3)C(C)C2)cc1 (stereo not drawn) [CBK304926] | 132.579
34 | N#Cc1cc(CN2CCCN(S(=O)(=O)c3ccc(C(=O)c4ccccc4)cc3)CC2)ccc1F [CBK062768] | 77.3811
35 | Cc1ccc(S(=O)(=O)/N=C(/NCc2ccc(Cl)cc2)Nc2nc(C)cc(C)n2)cc1 [CBK263785] | 92.8644
36 | CCN1CCN(C(=O)c2ccc(CN(c3ccc(C)c(C)c3)S(C)(=O)=O)cc2)CC1 [CBK267132] | 103.922
37 | Cc1cc(OCCCCNCCO)ccc1Cl [CBK033516] | 64.3711
38 | COc1ccc(C(N)C2(O)CCN(Cc3ccccc3)CC2)cc1 (stereo not drawn) [CBK091386] | 125.332
39 | Cc1onc(-c2ccccc2)c1CNC(=O)Cn1cc(C)c(=O)[nH]c1=O [CBK144094] | 94.387
40 | Cc1cccn2cc(CC(=O)NC3(C#N)CCCCC3)nc12 [CBK306252] | 39.3182
41 | CN1CCN(c2nc(-c3cc4ccccc4s3)cn3ccnc23)CC1 [CBK066388] | 89.4194
42 | CN(C)c1ccc(NC(=O)C(Cc2ccccc2)N2C(=O)c3ccccc3C2=O)cc1 (stereo not drawn) [CBK262413] | 105.892

Row | Compound | % of control remaining
43 | O=C(Nc1ccccc1[N+](=O)[O-])c1cc(S(=O)(=O)NCc2ccccc2)c(Cl)cc1Cl [CBK263240] | 75.8162
44 | Clc1ccccc1-c1nnc(Cn2c3ccc(Br)cc3c3nc4ccccc4nc32)o1 [CBK269091] | 44.3421
45 | CC(=O)Nc1ccc(-c2cncc(NC3CCC(O)CC3)n2)cc1 (stereo not drawn) [CBK065886] | 123.387
46 | CN(C)S(=O)(=O)NC1CC(C)(C)Cc2c1cnn2-c1ccc(F)cc1 (stereo not drawn) [CBK306646] | 54.6991
47 | COc1cc(/C=N/NC(=O)CCN2CCN(C)CC2)cc(OC)c1O [CBK261500] | 83.4816
48 | O=C(O)CNC(=O)CN1C(=O)c2ccc(C(=O)O)cc2C1=O [CBK264080] | 110.749
49 | C=CCC1c2cccc(C(=O)O)c2C(=O)N1c1cccc(OC)c1 (stereo not drawn) [CBK113160] | 105.596
50 | Cc1cc(NS(=O)(=O)c2ccccc2Br)n(C)n1 [CBK067376] | 82.3367
51 | COc1nc(OCCNS(=O)(=O)c2ccc(C)cc2)nc(N(C)C)n1 [CBK266752] | 108.263
52 | COc1cccc2c(=O)n(CCCn3nc(C)nc3C)cnc12 [CBK307295] | 50.306
53 | Cc1cccnc1NC(=S)Nc1ccc(S(N)(=O)=O)cc1 [CBK267049] | 107.64
54 | CC(C)Cn1cnc2c(Cl)nc3ccccc3c21 [CBK017530] | 70.0461
55 | O=C(CSc1ncccc1C(=O)O)c1ccccc1 [CBK273178] | 109.498
56 | Cc1cc(C(=O)NCCc2ccc(S(N)(=O)=O)cc2)ccc1[N+](=O)[O-] [CBK264390] | 110.831
57 | O=C(NCCN1CCc2ccccc21)C1CC2C=CC1O2 (stereo not drawn) [CBK283158] | 96.1296
58 | Cc1ccc(NC(=O)Cn2cnc3sc(C(=O)Nc4ccccc4)c(C)c3c2=O)cc1 [CBK265931] | 133.519
59 | CN1CCOc2ccccc2C(=O)NC/C=C/CC2(CCN(C(=O)c3ccc(F)cc3)CC2)C1=O [CBK292055] | 138.107
60 | CCOCc1c(O)ccc2c([N+](=O)[O-])c(C)n(-c3ccc(OC)cc3)c12 [CBK095589] | 85.3004
61 | OCc1ccc(-n2ncc(-c3ccc(Br)cc3F)n2)cc1 [CBK112920] | 72.094
62 | Nc1nc2c3c(c(-c4ccccc4)nc2[nH]1)CCCC3 [CBK020648] | 79.6185
63 | O=C(COc1ccc2c(c1)OCO2)N1CCN(Cc2ccccc2)CC1 [CBK269977] | 103.308

Row | Compound | % of control remaining
64 | Cc1cc(C)nc(CCNCc2c(C(C)C)nn(C)c2N(C)C)n1 [CBK305159] | 81.7671
65 | COc1ccc(CCNC(=O)c2nc3ncccn3n2)cc1OC [CBK268795] | 134.446
66 | CCCCCc1ccc(S(=O)(=O)N2CCN(C(=O)C3CCCO3)CC2)cc1 (stereo not drawn) [CBK044329] | 91.9889
67 | CC1(NC(=O)c2cccc(OCCN3CCCC3=O)c2)CCC1 [CBK281602] | 95.4016
68 | Cc1ccc(CN(CC2CCOC2)C2CC(C)(C)NC(C)(C)C2)o1 (stereo not drawn) [CBK283174] | 71.052
69 | Cn1c(Cc2csc(NC(=O)c3ccc(Cl)cc3F)n2)n[nH]c1=S [CBK296635] | 85.3925
70 | c1cnn(CC2CCCCN2c2ncnc3sccc23)c1 (stereo not drawn) [CBK304969] | 54.5127
71 | O=C(Nc1ccc2[nH]ccc2c1)c1ccc(OC(F)(F)F)cc1 [CBK159688] | 39.4069
72 | Cc1nc2c(C(=O)NCC3OCCO3)cnn2c(C)c1Cc1ccc(Br)cc1 [CBK167467] | 84.4151
73 | CC(=O)Nc1cccc(C(=O)N(Cc2ccccc2)Cc2ccccc2)c1 [CBK269295] | 106.299
74 | O=C(O)c1cnc2ccc(F)cc2c1N1CCOCC1 [CBK287851] | 80.4686
75 | COCCCNC(=O)Cn1cccc2cc(-c3ccc(F)cc3)nc1-2 [CBK284834] | 113.761
76 | O=C(Cc1ccsc1)N1CCC2(CCN(Cc3ccccc3)CC2)C1 [CBK136742] | 91.3009
77 | CCOc1cc(OCC)cc(C(=O)N2CCC3(CC2)NC(=O)c2ccc(C)cc2O3)c1 [CBK166215] | 83.663
78 | c1cnn(C2CCN(Cc3ccc(Oc4cnccn4)cc3)CC2)c1 [CBK306417] | 60.2682
79 | COc1nc2nonc2nc1OC [CBK028544] | 41.6083
80 | COC1CCCC(C(=O)N2CCCC2c2nc3ccccc3[nH]2)C1 (stereo not drawn) [CBK284007] | 74.3393
81 | O=C(NC1CCCCC1)N[C@H]1[C@H](O)[C@@H](N2CCN(c3ccccc3)CC2)[C@@H]2OC[C@H]1O2 [CBK288822] | 124.26
